Results on 42 sequences are retold here after paper PMC7819943, “Rice protein-binding microarrays: a tool to detect cis-acting elements near promoter regions in rice”.

This is one part of the list.

The target of this experiment is T1, OsWOX13 (Oryza sativa, UniProt Q5QMM3 1-267).
T1 sequence: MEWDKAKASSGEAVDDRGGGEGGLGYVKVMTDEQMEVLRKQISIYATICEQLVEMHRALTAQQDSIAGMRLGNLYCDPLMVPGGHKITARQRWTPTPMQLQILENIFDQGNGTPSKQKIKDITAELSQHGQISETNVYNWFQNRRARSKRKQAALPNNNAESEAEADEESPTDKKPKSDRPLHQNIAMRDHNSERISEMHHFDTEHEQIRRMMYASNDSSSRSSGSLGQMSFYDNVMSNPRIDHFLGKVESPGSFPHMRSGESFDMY
Description: protein-binding microarray (RPBM); PBS, 2% BSA, 51.3 ng/ul salmon testes DNA, 50 uM zinc acetate, 200 nM TF, 25 C, 1 h; high values mean tight binding. The conditions noted are these: protein: recombinant; tags: N-terminal polyhistidine and DsRed monomer fusion (pET32a); label: CyDye5-dUTP incorporated in the synthesized complementary strand; 3' TTTTT single-stranded linker to array surface; dsDNA, one strand shown. In short, it runs like this:
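An Axon 4000B scanner gave the binding signal as per-feature fluorescence intensity in arbitrary units. This followed washing of a custom Agilent array that had been incubated for 1 h at 25 °C with 200 nM protein in PBS, 2% BSA, salmon testes DNA and 50 µM zinc acetate. The proteins were transcription factors fused at the N-terminus to polyhistidine and DsRed, expressed in E. coli BL21-CodonPlus and purified on Ni–NTA.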
Take “ACTGATTTTAAGCCATGCTTGCTTCGAACTGAATCCGAACCGGAGTCACCTAGTGCAG”: the binding signal is 6310 fluorescence intensity (a.u.).
With “GTTATTGACTGACTGGCATTGAATATGAAGCATCTAGCTGCGGAGTCACCTAGTGCAG” the figure was 39700 fluorescence intensity (a.u.); with “TACTCCAATCAACCCAATCGTCCAAAACACGTCGCAAGTCCGGAGTCACCTAGTGCAG”, 13500 fluorescence intensity (a.u.); with “CAAACTTTTAATTTCAATTTCAAATTATTCAAATAGTGTCCGGAGTCACCTAGTGCAG”, 19800 fluorescence intensity (a.u.).
With “CACTTAATCTATAATTAGCGTATGTTTACTGTAGCATCATCGGAGTCACCTAGTGCAG” the figure was 25900 fluorescence intensity (a.u.); with “AATAAATTATCCCGGAAGAAAACAGTAAAATTCACATTGACGGAGTCACCTAGTGCAG”, 5720 fluorescence intensity (a.u.).
As to “ATGAATTTCAATTACATGGGCATGTAAATAATGCAGGAATCGGAGTCACCTAGTGCAG”, the binding signal was 14900 fluorescence intensity (a.u.).
With “GCGGAGATGAAGTTGATGGAATGGATGAAACCCTCTGCCCCGGAGTCACCTAGTGCAG” the figure was 3190 fluorescence intensity (a.u.); with “TAGATGAGTTAAATATAATTATTTGTATGTTTTAATAAATCGGAGTCACCTAGTGCAG”, 3630 fluorescence intensity (a.u.).
With “TTCAAAACTTCAATAATTATGAGACTGAAACATTACTCCACGGAGTCACCTAGTGCAG” the figure was 5760 fluorescence intensity (a.u.); with “TGGAGAACAGATGATTGATGTCTTAGGGCCGGAGAAACGCCGGAGTCACCTAGTGCAG”, 31400 fluorescence intensity (a.u.).
With “TTTAATAATTATTCTATAGTCTTTGTGGTCCTTAAGGTTGCGGAGTCACCTAGTGCAG” the figure was 20700 fluorescence intensity (a.u.); with “CGGAATTGTTTCACTCGTTTAAATCGAGTGTTGTTTCACCCGGAGTCACCTAGTGCAG”, 3610 fluorescence intensity (a.u.).
Consider “TAATGCCTAATTGATTAGGAATACAGAAGAATAGAGATTACGGAGTCACCTAGTGCAG”, for which the binding signal is 27100 fluorescence intensity (a.u.).
Next, “AGGCACCAATCAAGTACACACTTCTGACAAACCTGGTTAACGGAGTCACCTAGTGCAG”: 8390 fluorescence intensity (a.u.).
With “TTGACAGTTAATCCTAGGTCTATCTATCGCACTGAGTTTGCGGAGTCACCTAGTGCAG” the figure was 12400 fluorescence intensity (a.u.).
As for “GTGAATTAACAGGGGTACTAAGAGAATCTTTTCACCATAGCGGAGTCACCTAGTGCAG”, the binding signal was 3860 fluorescence intensity (a.u.).
“TCGATATCTCGATTGATGGTTTGATGTTTGTTTAATTCTGCGGAGTCACCTAGTGCAG”: the binding signal is 4980 fluorescence intensity (a.u.).
With “TGGGATAATTAACTCGTAATGATCCCCAAATGCGTGCGTACGGAGTCACCTAGTGCAG” the figure was 28300 fluorescence intensity (a.u.); with “GATATGATTCTTAATTTTATAGCTTCATCGATACGTGTTTCGGAGTCACCTAGTGCAG”, 5370 fluorescence intensity (a.u.).
With “AAACAAATTACATAATTCGCCTGTAAACTGCGAGACGAATCGGAGTCACCTAGTGCAG” the figure was 16200 fluorescence intensity (a.u.).
Next, “GCGTCGTCACTGTGATTATATTACGAGCTGGCCACTTAATCGGAGTCACCTAGTGCAG”: 6720 fluorescence intensity (a.u.); “TCTCTGATTTCTCTCAAATGAATTACTGTTACCAGTTGGTCGGAGTCACCTAGTGCAG”: 11900 fluorescence intensity (a.u.).
With “TTTAAGTGAAAATCAACGGTGAGATTAGATAGTGCCATGTCGGAGTCACCTAGTGCAG”, the binding signal is 5880 fluorescence intensity (a.u.).
With “GAGAAATCATAACCCTGTGATTTCACGCGGCCGCCGTCGGCGGAGTCACCTAGTGCAG” the figure was 6700 fluorescence intensity (a.u.); with “CAGATCAATAAATTGACAGACACAACATAGATCAACGATACGGAGTCACCTAGTGCAG”, 18300 fluorescence intensity (a.u.).
Next, “TTATTAATTTTAAGATACGGGTATAACATTTGGGATGTTTCGGAGTCACCTAGTGCAG”: 8030 fluorescence intensity (a.u.).
On to “ACACCTTAATTTTCTGGCCGTCGTGATCTGTATCGCTCTTCGGAGTCACCTAGTGCAG”, for which the binding signal is 6650 fluorescence intensity (a.u.).
With “TTAAAATTGATACAGAGCAACACAAAGAGCTAAACTAGGGCGGAGTCACCTAGTGCAG”, the binding signal is 14300 fluorescence intensity (a.u.).
With “CGATGATTGCTCTAGATTATATGCAACTCTCCGAATGATGCGGAGTCACCTAGTGCAG”, the binding signal was 43400 fluorescence intensity (a.u.).
Next, “AAATTAATTAATCGGCAAGCAACAGATCGATTCTGCGCACCGGAGTCACCTAGTGCAG”: 24300 fluorescence intensity (a.u.); “ATATAGATAGATAGAAGAAGGAAACAACTCAACCGCAGCACGGAGTCACCTAGTGCAG”: 11100 fluorescence intensity (a.u.); “ATCTGTTATTATCAGTTTAATATCTGATATGTGGGCCATACGGAGTCACCTAGTGCAG”: 5820 fluorescence intensity (a.u.).
With “AAAACCACAAATGATTAATAATTGCAAACACATTATTATTCGGAGTCACCTAGTGCAG”, the binding signal is 13800 fluorescence intensity (a.u.).
With “CTCAACAGAGATTTTAACAAAATCATATATCAAAATCTGGCGGAGTCACCTAGTGCAG” the figure was 3240 fluorescence intensity (a.u.); with “ACTTGTGTGATGTTTGGATTGATGCCAAAACTTGCCAAATCGGAGTCACCTAGTGCAG”, 3930 fluorescence intensity (a.u.); with “TATAATTTATTTTATCATTGAAGTACTTTAAACATGTTTTCGGAGTCACCTAGTGCAG”, 18900 fluorescence intensity (a.u.).
Next, “GATTGATGGCAGTTTTGTGGCGTACACCAGGCTCATGGACCGGAGTCACCTAGTGCAG”: 3810 fluorescence intensity (a.u.); “TTCTAAATAGAATGGCACTCGGAAATACTTAAATGTTTAACGGAGTCACCTAGTGCAG”: 4670 fluorescence intensity (a.u.); “TTAACTAAATCATATAACAATAATGAGATTAAAATAGACTCGGAGTCACCTAGTGCAG”: 8500 fluorescence intensity (a.u.).
Consider “GTAATTTGTGGAATTATGATAGTAGTTTTCGATGTATACCCGGAGTCACCTAGTGCAG”, for which the binding signal is 5700 fluorescence intensity (a.u.).
Next, “ATTTGCAAATTGAGTTTCTTGTGTTCATCTTGTTCTTGCTCGGAGTCACCTAGTGCAG”: 5850 fluorescence intensity (a.u.).
